Source: a collection of fitness landscapes (doi:10.1126/science.1257360)
Some of the results follow.

B1: PhoQ; a variant is named by its letters at X, in order, P23837 (parent)
chain: MKKLLRLFFPLSLRVRFLLATAAVVLVLSLAYGMVALIGYSVSFDKTTFRLLRGESNLFYTLAKWENNKLHVELPENIDKQSPTMTLIYDENGQLLWAQRDVPWLMKMIQPDWLKSNGFHEIEADVNDTSLLLSGDHSIQQQLQEVREDDDDAEMTHSVAVNVYPATSRMPKLTIVVVDTIPVELKSSYMVWSWFIYVLSANLLLVIPLLWVAAWWSLRPIEALAKEVRELEEHNRELLNPATTRELTSLVRNLNRLLKSERERYDKYRTTLTDLTHSLKTPLXXLQXXLRSLRSEKMSVSDAEPVMLEQISRISQQIGYYLHRASMRGGTLLSRELHPVAPLLDNLTSALNKVYQRKGVNISLDISPEISFVGEQNDFVEVMGNVLDNACKYCLEFVEISARQTDEHLYIVVEDDGPGIPLSKREVIFDRGQRVDTLRPGQGVGLAVAREITEQYEGKIVAGESMLGGARMEVIFGRQHSAPKDE

Variants of: B1
Test: enrichment ratio after two sorts for PhoP signalling (ratio (wild type AVST 3.29)); higher = more functional
Settings: with PhoP (E. coli)

Row | Variant | enrichment ratio
1 | RRYC | ≤ 0.25
2 | FNCR | ≤ 0.25
3 | NAFS | ≤ 0.25
4 | TNFF | ≤ 0.25
5 | HIHI | ≤ 0.25
6 | SETT | 12.6
7 | NNHG | ≤ 0.25
8 | MPSS | ≤ 0.25
9 | ECHF | ≤ 0.25
10 | ADLC | 3.37
11 | FNSY | ≤ 0.25
12 | PLMA | ≤ 0.25
13 | GHQQ | ≤ 0.25
14 | MRCY | ≤ 0.25
15 | FNWI | ≤ 0.25
16 | THSR | ≤ 0.25
17 | GLDC | ≤ 0.25
18 | WTHM | ≤ 0.25
19 | DLCV | ≤ 0.25
20 | PQNV | ≤ 0.25
21 | WLHV | ≤ 0.25

Row | Variant | enrichment ratio
22 | YEIT | ≤ 0.25
23 | LCER | ≤ 0.25
24 | ESTI | ≤ 0.25
25 | ESLK | ≤ 0.25
26 | EGYS | ≤ 0.25
27 | WKNW | ≤ 0.25
28 | RMVK | ≤ 0.25
29 | YWTR | ≤ 0.25
30 | LWAL | ≤ 0.25
31 | KSHG | ≤ 0.25
32 | LKKI | ≤ 0.25
33 | YCMV | 0.293
34 | HCKH | ≤ 0.25
35 | SHAN | ≤ 0.25
36 | LSWT | 1.82
37 | NDIP | ≤ 0.25
38 | RWQC | ≤ 0.25
39 | FMQM | ≤ 0.25
40 | CFFN | ≤ 0.25
41 | PVHV | ≤ 0.25
42 | WCMK | ≤ 0.25

Row | Variant | enrichment ratio
43 | PKVE | ≤ 0.25
44 | NDQH | 0.507
45 | LMPL | ≤ 0.25
46 | VPTD | ≤ 0.25
47 | VQSN | ≤ 0.25
48 | EAPW | ≤ 0.25
49 | AVNM | ≤ 0.25
50 | YVQR | ≤ 0.25
51 | VQCS | ≤ 0.25
52 | DDKA | ≤ 0.25
53 | QDAW | ≤ 0.25
54 | YVNY | ≤ 0.25
55 | FGFP | ≤ 0.25
56 | QAFK | ≤ 0.25
57 | PASW | ≤ 0.25
58 | MKNK | ≤ 0.25
59 | RLEA | ≤ 0.25
60 | IFCQ | ≤ 0.25
61 | PESN | ≤ 0.25
62 | PPQM | ≤ 0.25
63 | MDYM | ≤ 0.25

Row | Variant | enrichment ratio
64 | VCHT | ≤ 0.25
65 | RVAD | ≤ 0.25
66 | DPYE | ≤ 0.25
67 | AMIV | ≤ 0.25
68 | EAMR | ≤ 0.25
69 | PASM | ≤ 0.25
70 | FQFR | ≤ 0.25
71 | VKHY | ≤ 0.25
72 | DIYK | ≤ 0.25
73 | SNLK | 3.7
74 | SSAW | ≤ 0.25
75 | GWSV | ≤ 0.25
76 | GHPW | ≤ 0.25
77 | THRA | ≤ 0.25
78 | FPAN | ≤ 0.25
79 | HYWP | ≤ 0.25
80 | HFDI | ≤ 0.25
81 | TCFR | ≤ 0.25
82 | RNWD | ≤ 0.25
83 | FRDD | ≤ 0.25
84 | KKWR | ≤ 0.25
